Measured values: patent US20240018206A1 (BEIJING VDJBIO, published 2024)

T1: IL-1 receptor (IL-1R1), the receptor of the SPR assay (UniProt P14778 18-332, limits assumed)
T1 construct: also called fixed receptor
T1 sequence (looked up): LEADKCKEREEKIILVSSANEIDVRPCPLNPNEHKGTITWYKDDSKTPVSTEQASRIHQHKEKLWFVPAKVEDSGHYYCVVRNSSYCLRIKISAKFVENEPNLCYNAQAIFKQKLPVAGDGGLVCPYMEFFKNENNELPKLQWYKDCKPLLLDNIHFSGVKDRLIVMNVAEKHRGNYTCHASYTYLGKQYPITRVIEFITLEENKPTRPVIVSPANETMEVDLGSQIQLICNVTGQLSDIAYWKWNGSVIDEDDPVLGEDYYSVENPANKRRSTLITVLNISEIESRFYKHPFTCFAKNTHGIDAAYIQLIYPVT

T2: IL-1 receptor (IL-1R1) on A375.s2 cells (UniProt P14778 18-569, limits assumed)
T2 sequence (looked up): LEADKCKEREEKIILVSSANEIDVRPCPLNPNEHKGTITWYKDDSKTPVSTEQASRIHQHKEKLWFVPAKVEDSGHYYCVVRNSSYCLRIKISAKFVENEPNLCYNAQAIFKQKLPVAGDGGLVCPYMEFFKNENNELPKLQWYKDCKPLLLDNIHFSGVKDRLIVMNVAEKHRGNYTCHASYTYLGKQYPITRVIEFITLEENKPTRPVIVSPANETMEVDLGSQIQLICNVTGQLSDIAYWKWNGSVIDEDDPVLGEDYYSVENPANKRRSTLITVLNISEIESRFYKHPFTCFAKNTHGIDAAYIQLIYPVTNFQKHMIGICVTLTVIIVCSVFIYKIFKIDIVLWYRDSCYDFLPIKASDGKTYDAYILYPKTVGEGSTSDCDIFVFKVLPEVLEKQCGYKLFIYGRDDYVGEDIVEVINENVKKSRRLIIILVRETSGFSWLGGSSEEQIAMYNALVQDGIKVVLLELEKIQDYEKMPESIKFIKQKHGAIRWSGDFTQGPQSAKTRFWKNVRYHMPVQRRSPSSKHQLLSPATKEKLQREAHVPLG


Key:
[1] = biological target: T1, IL-1 receptor (IL-1R1), the receptor of …; assay: SPR, BIAcore 3000, 25 C, analyte 1.2 to 100 nM
Method: All SPR measurements are performed on a BIAcore 3000 instrument (GE Biosciences, Piscataway, N.J.). BIAcore software-BIAcore 3000 control software V3.2 is used to operate and control the BIAcore 3000 instrument. SPR data from the BIAcore 3000 instrument are analyzed using evaluation software V4.1, and the data are plotted using Graph Pad Prism software version 5. […] The fusion protein shown is used as a ligand for constructing the reference channel of a chip. The analyte IL-1RN-Fc bound to the fixed receptor is measured, with a concentration of 1.2 to 100 nM (3-fold dilution). Each sample is injected at a flow rate of 30 μL/min for 3 minutes to bind to the fusion protein bound to the chip. Next, the binding buffer without analyte is passed through the chip at the same flow rate to dissociate the bound analyte. 500 s later, the regeneration solution (1M formic acid) is injected to remove the residual binding analyte. The data are analyzed using the Kinetics Guidelines and the manual fitting program attached to BiaEvaluation software V4.1.

[2] = biological target: T2, IL-1 receptor (IL-1R1) on A375.s2 cells; assay: cell-based or functional assay
[3] = biological target: T2, IL-1 receptor (IL-1R1) on A375.s2 cells; assay: cell-based or functional assay; remark: listed apart in the source
[4] = biological target: T2, IL-1 receptor (IL-1R1) on A375.s2 cells; assay: cell-based or functional assay; remark: listed apart in the source

Kd [1]	Relative Affinity [1]	koff [1]	kon [1]	IC50(µg/ml), inhibition of IL-1β induced A375.s2 apoptosis (MTS, 490 nM) [2]	biological activity relative to D74N (w/o linker) [3]	IC50(µg/ml), inhibition of IL-1β induced A375.s2 apoptosis (MTS, 490 nM) [4]	Binder
1.17 nM	1 fold (reference IL-1RN-Fc)	0.000182 s⁻¹	155000 M⁻¹ s⁻¹	–	–	–	IL-1RN-Fc (wild-type IL-1RN fused to hIgG4 Fc S228P through the linker …) (Fc fusion, also called wild-type IL-1RN-Fc) not shown
0.091 nM	12.9 fold (reference IL-1RN-Fc)	1.75e-05 s⁻¹	192000 M⁻¹ s⁻¹	1.26 µg/mL	–	–	IL-1RN R5T R14T D74N-Fc (Fc fusion) RPSGTKSSKMQAFTIWDVNQKTFYLRNNQLVAGYLQGPNVNLEEKIDVVPIEPHALFLGIHGGKMCLSCVKSGNETRLQLEAVNITDLSENRKQDKRFAFIRSDSGPTTSFESAACPGWFLCTAMEADQPVSLTNMPDEGVMVTKFYFQEDEGGGGSGGGGSGGGGS[letters of human IgG4 Fc with S228P (EU numbers) omitted]
0.11 nM	10.7 fold (reference IL-1RN-Fc)	2.06e-05 s⁻¹	188000 M⁻¹ s⁻¹	1.39 µg/mL	3 fold	1.55 µg/mL	IL-1RN D74N-Fc (with linker …) (Fc fusion, It may be this molecule or the linker-free one; also called D74N (w/linker); IL-1RN D74N-hIgG4 Fc S228P) not shown

Where two headings read alike, the source gives them in different places.
